Results as given in PubChem BioAssay AID2676 (National Center for Advancing Translational Sciences (NCATS), 2010).
Among all 370,000 compounds or so, about 1,100 (0.3%) were called active. This list was built around the results that the source calls inconclusive (neither active nor inactive); the mix of calls is not that of the screen. The call rests on the fitted dose curve; in most records, active means well fitted activation curve with a large enough effect; inconclusive means small, poorly fitted or top-dose-only effect; inactive means flat fitted curve, though single readings scatter. Potencies of inconclusive entries are doubtful fits and often do not repeat.

molecular target: Relaxin receptor 1 (Homo sapiens) (UniProt Q9HBX9); assay: qHTS Assay for Agonists of the Relaxin Receptor RXFP1; settings: HEK293T-RXFP1 cAMP TR-FRET, 30 min; series mostly up to 57.5 µM; activation: at the top concentration; further: nearly all actives have a fitted effect of over 60% in size
Method in brief: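 HEK293T cells stably expressing RXFP1 were pretreated with the PDE4 inhibitor Ro 20174, exposed to compounds for 30 min at 37C, lysed, and cAMP was read by TR-FRET. Data normalized to buffer (basal) and 29 nM porcine relaxin (100%).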
On the % scale 0 is the no-effect control and ±100 the full control effect; potency means the concentration at half of the fitted maximal effect; tags describe the fitted curve by direction and shape.

Chain of UniProt Q9HBX9 (Q9HBX9 whole entry, looked up): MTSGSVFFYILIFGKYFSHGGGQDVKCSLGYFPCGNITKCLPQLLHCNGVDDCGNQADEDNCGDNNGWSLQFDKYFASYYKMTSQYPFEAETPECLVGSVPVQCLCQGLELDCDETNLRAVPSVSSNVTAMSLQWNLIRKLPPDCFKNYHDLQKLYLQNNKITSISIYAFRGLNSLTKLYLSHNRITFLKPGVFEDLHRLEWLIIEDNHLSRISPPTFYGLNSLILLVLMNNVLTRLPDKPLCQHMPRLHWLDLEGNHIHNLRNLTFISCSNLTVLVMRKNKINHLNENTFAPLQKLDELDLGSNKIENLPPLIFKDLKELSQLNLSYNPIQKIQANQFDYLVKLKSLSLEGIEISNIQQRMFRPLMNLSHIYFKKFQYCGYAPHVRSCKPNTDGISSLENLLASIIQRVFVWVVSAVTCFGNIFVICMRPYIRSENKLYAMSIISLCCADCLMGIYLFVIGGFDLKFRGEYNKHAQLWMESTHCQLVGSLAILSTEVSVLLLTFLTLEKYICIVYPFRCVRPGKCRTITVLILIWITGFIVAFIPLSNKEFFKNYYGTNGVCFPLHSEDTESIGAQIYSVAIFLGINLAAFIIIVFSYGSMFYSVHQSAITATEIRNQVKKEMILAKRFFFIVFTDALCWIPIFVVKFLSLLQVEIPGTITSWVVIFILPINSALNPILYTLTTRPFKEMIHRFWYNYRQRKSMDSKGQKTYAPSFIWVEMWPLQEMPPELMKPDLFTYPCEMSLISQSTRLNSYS

Row | Compound | activation | Potency
1 | CN(C)CCCN(C(=O)c1ccc2c(c1)CCCC2)c1nc2ccc(F)cc2s1 | inactive: -0.591% | 
2 | COc1ccc(CN2C(=O)c3cccnc3C2=O)cc1S(=O)(=O)NC1CCCCC1C (stereo not drawn) |  | active: 25.1 µM
3 | Cc1cccn2c(=O)c3cc(C(=O)N4CCCC(C)C4)sc3nc12 (stereo not drawn) |  | inconclusive: 28.2 µM [activator, partial curve]
4 | Cc1cc(C)nc(/N=C(\N)Nc2ccc(S(=O)(=O)Nc3nc(C)cc(C)n3)cc2)n1 |  | inconclusive: 31.6 µM [activator, single point]
5 | CCCN(Cc1cc2cc(C)ccc2[nH]c1=O)C(=O)c1cccc(Cl)c1 |  | inconclusive: 39.8 µM [activator, single point]
6 | CC(=O)c1ccc(NC(=O)c2cccc(NC(=O)N3CCSc4ncccc43)c2)cc1 |  | inconclusive: 31.6 µM [activator, single point]
7 | CCc1ccccc1Nc1nn2c(=O)c3ccc(C(=O)NCCc4ccccc4)cc3nc2s1 |  | inconclusive: 35.5 µM [activator, single point]
8 | Cc1ccc(Sc2c(O)c3ccccc3n(C)c2=O)cc1 |  | inconclusive: 20 µM [activator, partial curve]
9 | C=CCOc1ccc(C2/C(=C(\O)c3ccc4c(c3)OCCO4)C(=O)C(=O)N2CCCN2CCOCC2)cc1 (stereo not drawn) |  | inconclusive: 28.2 µM [activator, partial curve]
10 | CCC(Sc1nnc(-c2ccco2)n1C)C(=O)Nc1nnc(C)s1 (stereo not drawn) |  | inconclusive: 17.8 µM [activator, partial curve]
11 | O=c1[nH]n2cc(-n3cc([N+](=O)[O-])cn3)cnc2c1Br |  | inconclusive: 15.8 µM [activator, partial curve]
12 | CCOc1ccc(Sc2cc(C(=O)NCc3ccc(F)cc3)c3ccccc3n2)cc1 |  | inconclusive: 39.8 µM [activator, single point]
13 | CCc1ccc(CNC(=O)c2nn(-c3ccc(C)c(C)c3)nc2CO)cc1 | inactive: 4.22% | 
14 | O=C(NCc1ccco1)c1ccc2c(c1)N(Cc1ccc(Cl)cc1)C(=O)c1ccccc1S2=O (stereo not drawn) |  | inconclusive: 39.8 µM [activator, single point]
15 | O=C(CC(c1ccccc1)c1ccccc1)Nc1ccc(Cl)cn1 | inactive: -0.307% | 
16 | CCOC(=O)Cc1csc(NC(=O)CSc2nc(N)c3c(C)c(C)sc3n2)n1 |  | inconclusive: 39.8 µM [activator, single point]
17 | CCN(CC)CCCNC(=O)c1ccc(-c2nc(CN3CCc4ccccc43)c(C)o2)cc1 | inactive: -0.0887% | 
18 | COc1ccc(-c2cc3nc(C)c(CCC(=O)Nc4ccccc4C(C)=O)c(C)n3n2)c(OC)c1 | inactive: 5.6% | 
